60 compounds from ChEMBL document CHEMBL1201862, “PubChem BioAssay data set” (2004) can be followed below.

As a reminder, the GI50 is the concentration that inhibits growth by half.

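Interpolation was linear, between the two tested concentrations surrounding the appropriate level; five concentrations were tested over 48 hours in 96-well plates. Abbreviation: GI50, concentration required for 50% inhibition of growth.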 Activity calls are given as the source filed them. Rule as the data show it: active = GI50 up to about 1.1 µM and inactive = higher. Where only a bound is given, the exact number is not on record here.

For this test, the system named is NCI-H322M. The experiment in a line: DTP human tumour cell line panel, 48 h.
In the case of `O=C1C(Cl)=C(N2CCN(CCOCCO)CC2)C(=O)c2ncccc21`, the GI50 was inactive: > 10 µM. As to `O=C(N/N=C\c1cccc(O)c1)c1ccncc1`, the GI50 was inactive: > 100 µM. The result for `Oc1[nH]c(Nc2cccc(CC(F)(F)F)c2)nc2ncnc1-2` reads inactive: > 100 µM. As to `C=C(CN(C)C)C(=O)c1ccc(OC2OC(COC(C)=O)C(OC(C)=O)C(OC(C)=O)C2OC(C)=O)cc1` (stereo not given), the GI50 was inactive: 17.9 µM. As to `Cc1cc2c3c(c1)CCCN3CCC2`, the GI50 is inactive: > 10 µM. Turning to `CCc1n[nH]c(=O)n1CC`, the GI50 is inactive: > 100 µM. The result for `O=C1C2Cc3ccccc3CN2C(=O)N1CN1CCCCC1` (stereo not given) reads inactive: > 100 µM; that for `CC(=O)Nc1ccc(C2=N/C(=C\c3ccc(Cl)cc3)C(=O)O2)cc1`, inactive: 25.8 µM. In the case of `NC(=O)OCC(COc1ccc(Cl)cc1)OC(=O)c1cc([N+](=O)[O-])cc([N+](=O)[O-])c1` (stereo not given), the GI50 is inactive: > 100 µM. The result for `COC(=O)c1ccc(OCc2ccc3nc(OC)c(OC)nc3c2)cc1` reads inactive: > 100 µM. `Cc1ccc(NC(=S)NNC(=O)c2cc(-c3ccccc3)nc3ccccc23)cc1C`: the GI50 was inactive: 27.4 µM. The result for `Cc1c(C)n(-c2ccccc2)c2nc(S(C)(=O)=O)nc(S(C)(=O)=O)c12` reads inactive: 18.7 µM; that for `C=C(C(=O)O)C1CCC(CC/C=C(\C)CC/C=C(\C)CCC=C(C)C)CO1` (stereo not given), inactive: 18.2 µM. As for `Cc1c2c(c(C)n1-c1ccccc1)C(=O)N(CCN1CCN(c3cccc(C(F)(F)F)c3)CC1)C2=O`, the GI50 was inactive: > 100 µM.

`CCOC(=O)c1cc(C(=O)O)c(=O)n2c1[nH]c1ccccc12`: the GI50 was inactive: > 100 µM. With `CCNC(=S)NNC(=O)c1nsc2ccccc12`, the GI50 is inactive: 71.3 µM. With `CCOc1c(OC)cc(CNNc2nccs2)cc1OC`, the GI50 was inactive: > 100 µM. Regarding `COc1cccc(-c2nnc3c(-c4ccccc4)nc4ccccc4n23)c1`, the GI50 is inactive: > 100 µM.

In the case of `O=C(NC1C/C(=N/O)c2c(Br)sc(Br)c21)C(F)(F)F` (stereo not given), the GI50 was inactive: 31.7 µM. Consider `O=C(CC(=O)c1ccc([N+](=O)[O-])cc1)C(=O)Nc1nccs1`, for which the GI50 is inactive: > 100 µM.

For `CC(=O)NNc1nc(C)c(C(=O)NNC(=O)C(=O)Nc2ccc([N+](=O)[O-])cc2C#N)s1`, the GI50 was inactive: > 100 µM. Next, `Cn1c(=O)c2nc3c4ccccc4c(=O)n(C)c3nc2n(C)c1=O`: inactive: > 100 µM.

As for `COc1ccc2c(c1)CC[C@@H]1C2CC[C@]2(C)C(=O)N(CCN3CCCC3)C(=O)CC12` (stereo not given in full), the GI50 was inactive: 21.8 µM. Next, `O=C1/C(=C/c2ccc(O)cc2)CCC1CNc1ccc(Cl)cc1` (stereo not given): inactive: 11.6 µM; `N=C(N)NS(=O)(=O)c1ccc(NC(=O)c2cccn3c(=O)c4ccccc4nc23)cc1`: inactive: 68.7 µM; `CC(=O)CCC[C@@H](C)[C@@H]1O[C@H]([C@@]2(C)CCC(=O)O2)C[C@H]2C(CSc3ccccc3)C(=O)O[C@@H]12` (stereo not given in full): inactive: 3.7 µM. The result for `O=c1c2c3c(sc2nc2n1NC=NN2)CCCC3` reads inactive: > 55.3 µM; that for `COP(=O)(OC)C(=O)N1N(c2ccc([N+](=O)[O-])cc2)C(=O)C(C)NC1(NNc1ccc([N+](=O)[O-])cc1)P(=O)(OC)OC` (stereo not given), inactive: > 100 µM; that for `COc1ccc(OC)c2c(C(=O)O)c(Cc3ccccc3)ccc12`, inactive: > 100 µM. For the compound `CNC(=O)OCc1nc(SC)n(C)c1COC(=O)NC`, the GI50 is inactive: 216 µM. As to `COc1cc2c(cc1OC)C(C)N(C)c1c-2c(OC(C)=O)cc2cc(OC)c(OC)cc12` (stereo not given), the GI50 was inactive: 20.3 µM.

On to `O=[N+]([O-])c1ccc(S[C@@H]2[C@H]3c4c(-c5ccccc5)[nH]c(-c5ccccc5)c4[C@@H]2C[C@H]3Cl)cc1`, for which the GI50 is inactive: 4.35 µM. On to `O=C1Nc2ccccc2/C1=N/Nc1ccc([N+](=O)[O-])cc1[N+](=O)[O-]`, for which the GI50 is inactive: 24.6 µM. Regarding `CCCc1c(C(=O)OCC)[nH]c(-c2ccc(-c3[nH]c(C(=O)OCC)c(CCC)c3C(=O)OCC)o2)c1C(=O)OCC`, the GI50 is inactive: > 100 µM. Consider `CC1(C)O[C@H]2OC(CO)C(OS(C)(=O)=O)[C@H]2O1` (stereo not given in full), for which the GI50 was inactive: > 100 µM. The result for `C=C1C2=C(CCCC2)C(=O)OC12CCCCC2` reads inactive: > 100 µM; that for `S=C(S)NCC1CCC(CNC(=S)S)CC1` (stereo not given), inactive: > 100 µM. The result for `Oc1ccc(-c2nc3ccc4ccccc4c3c3c2CCCC3)c(O)c1` reads inactive: 37.5 µM. `CCCCCCCC/C=C/CCCCCCCC(=O)N(O)C1CC(n2cc(C)c(=O)[nH]c2=O)OC1CO` (stereo not given): the GI50 was inactive: 16.8 µM. As to `Brc1ccc2[nH]cc([C@@H]3CN[C@@H](c4c[nH]c5ccc(Br)cc45)CN3)c2c1`, the GI50 is inactive: 4.57 µM. Take `CC1=NN=C(N)N/C1=C/C(Sc1ccc(Cl)cc1)c1cccs1` (stereo not given): the GI50 was inactive: 21.7 µM.

In the case of `COc1ccc2nc3c(C)cc4ccccc4n3c2c1`, the GI50 is inactive: 92.7 µM. As for `COC(=O)c1ccc2c(c1)CC1(C2)Cc2ccccc2C1=O` (stereo not given), the GI50 was inactive: > 100 µM. In the case of `CCOC(=O)c1cc(C2CCN(Cc3ccccc3)C2=O)c(C(=O)C(=[N+]=[N-])C(C)=O)[nH]1` (stereo not given), the GI50 was inactive: > 100 µM.

As for `O=C1CCCC1C(O)(C(F)(F)Cl)C(F)(F)Cl` (stereo not given), the GI50 is inactive: > 10 µM.

`CCCCCCCCC1=CCC(CN(C)C)C1=O` (stereo not given): the GI50 is inactive: > 87.7 µM. For `COc1ccc(NC(=S)c2ccc([N+](=O)[O-])o2)cc1`, the GI50 was inactive: 2.89 µM. Consider `CC(=O)OC1CCC2(C)C(CCC3C4CC=C(C5(C)OCCO5)C4(C)CCC32)C1` (stereo not given), for which the GI50 was inactive: 33.7 µM. Turning to `CCOC(=O)c1nc2ccccc2nc1Oc1ccc(OC)cc1`, the GI50 is inactive: > 100 µM. As to `C=CCC1NCCC2=C1C(S(=O)(=O)c1ccc(C)cc1)c1ccccc12` (stereo not given), the GI50 is inactive: 12.8 µM. For the compound `N#C/C(N)=C(C#N)/N=C/N`, the GI50 is inactive: > 100 µM.

As to `C1=C2C3=[N+](CCCCC3)CC2Cc2ccsc21` (stereo not given), the GI50 is inactive: 55.5 µM. Regarding `CSc1nc(NCc2ccccc2)c2cnn(COCCO)c2n1`, the GI50 is inactive: > 100 µM. As for `CC[C@@H]1C[C@@H]2CN3CCc4c([nH]c5ccc(OC)cc45)C(COC(=O)c4ccc(OC)c(OC)c4)(C2)C13`, the GI50 was inactive: 35.5 µM. For the compound `COC1=CC(=O)[C@@]2(C)C(C)[C@H](c3ccccc3)[C@H]2C1=O` (stereo not given in full), the GI50 was inactive: > 100 µM. Regarding `CC(=O)NC1=C(C)C(=O)c2c(nc3n2CCC3OC(=O)c2ccccc2)C1=O` (stereo not given), the GI50 is inactive: 3.56 µM. Next, `Cn1cnc([N+](=O)[O-])c1Sc1nc2cc([N+](=O)[O-])ccc2[nH]1`: inactive: 24.3 µM; `COc1ccc(COCC(Cn2ccnc2)OCc2ccc(C(=O)O)cc2)cc1` (stereo not given): inactive: > 100 µM. For `COc1cc2c(c(OC)c1OC)-c1ccc(SC)c(=O)cc1[C@@H](OC(=O)c1ccncc1)CC2`, the GI50 is active: < 0.01 µM.

On to `COc1cc(O)cc(/C=C/c2ccc(O)cc2)c1`, for which the GI50 is inactive: 31 µM.
